Data from paper PMC4336329 (PLoS ONE, 2015).
The campaign covered roughly 310,000 compounds. About 2,200 (0.71%) showed an effect of 50% or more. Effects have a minus sign here. This is one part of the list.

Target: human ether-à-go-go-related gene (hERG) potassium channel (human, UniProt Q12809)
Test: primary screen, population patch clamp on CHO cells stably expressing hERG

human ether-à-go-go-related gene (hERG) potassium channel, sequence (Q12809 whole entry, looked up): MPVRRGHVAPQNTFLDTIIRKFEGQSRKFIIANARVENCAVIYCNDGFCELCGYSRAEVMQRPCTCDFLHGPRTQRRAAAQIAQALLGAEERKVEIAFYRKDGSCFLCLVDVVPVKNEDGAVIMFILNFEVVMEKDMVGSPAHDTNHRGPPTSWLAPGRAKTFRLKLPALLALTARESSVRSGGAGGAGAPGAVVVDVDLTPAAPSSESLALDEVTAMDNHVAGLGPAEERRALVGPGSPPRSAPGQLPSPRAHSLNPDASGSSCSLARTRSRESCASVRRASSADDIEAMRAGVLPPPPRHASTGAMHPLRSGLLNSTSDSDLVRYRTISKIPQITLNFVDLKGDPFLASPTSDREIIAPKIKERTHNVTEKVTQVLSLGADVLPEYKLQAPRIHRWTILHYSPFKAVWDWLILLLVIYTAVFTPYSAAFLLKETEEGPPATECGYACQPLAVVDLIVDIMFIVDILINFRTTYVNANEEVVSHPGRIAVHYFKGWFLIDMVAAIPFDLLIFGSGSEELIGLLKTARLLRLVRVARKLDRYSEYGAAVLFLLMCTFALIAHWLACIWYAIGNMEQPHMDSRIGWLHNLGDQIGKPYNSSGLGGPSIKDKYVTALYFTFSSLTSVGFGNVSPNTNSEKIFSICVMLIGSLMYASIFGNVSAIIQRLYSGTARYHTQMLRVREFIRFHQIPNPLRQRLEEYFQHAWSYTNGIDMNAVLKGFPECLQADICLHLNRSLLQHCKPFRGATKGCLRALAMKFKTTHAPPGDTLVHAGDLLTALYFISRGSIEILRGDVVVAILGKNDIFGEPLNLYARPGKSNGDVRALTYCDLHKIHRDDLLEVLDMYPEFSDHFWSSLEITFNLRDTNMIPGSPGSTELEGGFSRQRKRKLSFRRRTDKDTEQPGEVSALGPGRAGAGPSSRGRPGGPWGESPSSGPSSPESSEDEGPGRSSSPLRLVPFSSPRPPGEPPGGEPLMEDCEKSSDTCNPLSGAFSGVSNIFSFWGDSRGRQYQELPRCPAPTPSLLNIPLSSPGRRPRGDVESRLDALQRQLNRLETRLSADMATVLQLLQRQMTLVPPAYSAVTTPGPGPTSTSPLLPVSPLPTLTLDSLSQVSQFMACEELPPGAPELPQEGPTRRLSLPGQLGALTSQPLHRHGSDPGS

First: CCCCN(C(=S)NC(=O)c1ccccc1)c1c(N)n(Cc2ccccc2)c(=O)[nH]c1=O
Second: O=C(O)CSc1cn(Cc2ccccc2)c2ccccc12
The “hERG current change (%, negative = inhibition) at 1uM” value of the first is lower: 8.06% for the first, 15.6% for the second.

Compared with `O=C(c1coc(=O)c(Br)c1)N1CCCc2ccccc21`, `O=C(Cn1cnc2ccccc2c1=O)NC1CCCc2ccccc21` (centres unmarked) is higher in “hERG current change (%, negative = inhibition) at 1uM” value: 9.4% for the first, 13% for the second.

Compared with `Cc1cccc(/C=N/n2c(C)cc(C)c(C#N)c2=O)c1`, `Cc1ccc(C(=O)N/N=C/c2cc(C)n(-c3ccc(Br)cc3)c2C)cc1[N+](=O)[O-]` is higher in “hERG current change (%, negative = inhibition) at 1uM” value: 11.9% for the first, 13.7% for the second.

First: Cc1ccc(Nc2nnc(SCC(=O)c3ccc(Br)s3)s2)c(C)c1
Second: Cc1cccc(C)c1OCc1nnc(SCC(=O)NCc2ccccc2)o1
The “hERG current change (%, negative = inhibition) at 1uM” value of the first is higher: 11.5% for the first, -9.14% for the second.

First: COc1ccc(N2CC(C(=O)N3CCN(C)CC3)CC2=O)cc1 (centres unmarked)
Second: COc1ccc(NC(=O)C2CC(=O)N=C(N)S2)cc1 (centres unmarked)
The “hERG current change (%, negative = inhibition) at 1uM” value of the first is higher: 15.6% for the first, 11.4% for the second.

First: CCC(=O)NC(c1ccccc1)c1c(O)ccc2ccccc12 (centres unmarked)
Second: CC(=O)N(C)c1ccc(NC(=O)C(c2ccccc2)c2ccccc2)cc1
The “hERG current change (%, negative = inhibition) at 1uM” value of the first is higher: 13.7% for the first, -2.74% for the second.

Going from `COC(=O)c1sc(NC(=O)CSc2nnc(C(C)C)n2C)nc1C` to `CCCn1c(SCC(=O)NNC(=O)c2ccc(C)cc2)nnc1C(C)C`, the “hERG current change (%, negative = inhibition) at 1uM” value falls from 5.9% to 3.29%.

Compared with `N#Cc1nc(-c2ccc(OCc3ccccc3)cc2)oc1NCc1ccco1`, `O=C(CN1CCN(c2ccccc2)CC1)Nc1ccc(Oc2ccccc2)cc1` is higher in “hERG current change (%, negative = inhibition) at 1uM” value: 11.5% for the first, 17.2% for the second.

Compared with `COc1ccc(NC(=O)/C=C/C(=O)O)cc1Cl`, `COc1cc(/C=N/NC(=O)NC23CC4CC(CC(C4)C2)C3)ccc1OCC(N)=O` is lower in “hERG current change (%, negative = inhibition) at 1uM” value: 12.7% for the first, 1.53% for the second.

First: COc1cc(C(=O)OCC(=O)NCCC2=CCCCC2)ccc1OCC(C)C
Second: COc1cc(CCNC(=O)c2ccccc2NC(=O)C2=C(C)OCCS2)cc(OC)c1OC
The “hERG current change (%, negative = inhibition) at 1uM” value of the first is lower: 10.8% for the first, 11.7% for the second.

Going from `CC(=O)Nc1ccc(C(=O)CS(=O)(=O)c2ccc(C)cc2)cc1` to `Cc1ccc(CSCCNC(=O)c2ccc(N(C)S(=O)(=O)c3ccccc3)cc2)cc1`, the “hERG current change (%, negative = inhibition) at 1uM” value falls from -1.38% to -5.15%.

Compared with `Cc1cccc2nc(CSc3nc4ccccc4o3)cn12`, `Cc1cc(Nc2cccc([N+](=O)[O-])c2)c2ccccc2n1` is lower in “hERG current change (%, negative = inhibition) at 1uM” value: -2.75% for the first, -36.7% for the second.

Going from `Cc1ccsc1CN(C)C(=O)c1ccc(Oc2ccccc2)cc1` to `CCCN(Cc1ccccc1)C(=S)Nc1ccc(C(C)=O)cc1`, the “hERG current change (%, negative = inhibition) at 1uM” value falls from 6.61% to -1.99%.

Compared with `O=C(/C=C/c1cccc(Br)c1)OCC(=O)N1CCN(c2ccccc2)CC1`, `O=C(COC(=O)/C=C/c1ccc(Cl)cc1)NCCc1ccccc1` is higher in “hERG current change (%, negative = inhibition) at 1uM” value: 8.9% for the first, 13.5% for the second.

First: Cc1ccc(Nc2nc3nonc3[nH]c2=O)cc1
Second: C1COCCO1.Cc1ccc2nc(Nc3nc(C)cc(-c4ccccc4)n3)[nH]c(=O)c2c1
The “hERG current change (%, negative = inhibition) at 1uM” value of the first is higher: 14.7% for the first, 10.4% for the second.

Compared with `Cc1cc2ccccc2c(=O)n1CC(=O)Nc1ccc2c(c1)OCCO2`, `Cc1nc(NC(=O)c2ccccc2)nc2cc3c(cc12)OCO3` is lower in “hERG current change (%, negative = inhibition) at 1uM” value: 7.65% for the first, 5.52% for the second.

Going from `Cc1ccc(OCC(O)CN2CCN(c3ccc(C)cc3)CC2)cc1` (centres unmarked) to `Oc1ccc(N2CCN(c3nnnn3-c3ccccc3)CC2)cc1`, the “hERG current change (%, negative = inhibition) at 1uM” value rises from -3.83% to 3.34%.

Going from `COc1ccc(-c2cc(C(F)F)n3ncc(C(=O)Nc4ccc(C(=O)N5CCOCC5)cc4)c3n2)cc1` to `COc1ccc(-c2cc3c(=O)n(CC(=O)Nc4ccc(Cl)cc4)ncn3n2)cc1`, the “hERG current change (%, negative = inhibition) at 1uM” value rises from 8.74% to 24%.

First: Cc1occc1C(=O)Nc1ccccc1C#N
Second: O=C(Nc1ccccc1C(F)(F)F)c1ccsc1
The “hERG current change (%, negative = inhibition) at 1uM” value of the first is higher: 13.9% for the first, 5.49% for the second.

Going from `CC1CCCN(C(=S)Nc2ccc(Nc3ccccc3)cc2)C1` (centres unmarked) to `O=C(Nc1ccc(C(F)(F)F)cc1)N1CCN(C(=O)c2ccco2)CC1`, the “hERG current change (%, negative = inhibition) at 1uM” value falls from 13.9% to -7.25%.

Going from `Cc1[nH]c2ccc(F)cc2c1CCN1C(=O)OC(C)(C)C1(C)O` (centres unmarked) to `Cn1c(=O)c(Oc2ccc(F)cc2)c(O)c2ccccc21`, the “hERG current change (%, negative = inhibition) at 1uM” value falls from 3.77% to 3.59%.

Going from `COc1ccc(CNC(=O)/C=C/c2ccccc2[N+](=O)[O-])cc1` to `COC(=O)c1cn(NC(=O)c2ccccc2[N+](=O)[O-])c(=O)c2ccccc12`, the “hERG current change (%, negative = inhibition) at 1uM” value falls from 15% to 6.56%.

First: COc1ccc(CN2CCN(C(=O)Cn3c(=O)oc4cc(Cl)ccc43)CC2)c(OC)c1OC
Second: Cc1c(C)c2ccc(OCC(=O)Nc3ccc(CN4CCOCC4)cc3)cc2oc1=O
The “hERG current change (%, negative = inhibition) at 1uM” value of the first is lower: 3.64% for the first, 9.42% for the second.

Going from `CCc1nnc(NC(=O)C2CCN(c3nccc(C)n3)CC2)s1` to `Cc1cc(OCCCC(=O)Nc2nnc(C3CC3)s2)ccc1Cl`, the “hERG current change (%, negative = inhibition) at 1uM” value rises from 14.4% to 20.9%.

Going from `CCN(CC(=O)NCCc1ccc(S(N)(=O)=O)cc1)Cc1nc2ccccc2c(=O)[nH]1` to `O=C(NCCc1c[nH]c2ccccc12)C1CCN(S(=O)(=O)c2ccccc2)CC1`, the “hERG current change (%, negative = inhibition) at 1uM” value falls from 17.9% to 7.42%.

Going from `O=S(=O)(c1ccc(NC(=S)NC2CCCC2)cc1)N1CCCC1` to `Cc1ccc(S(=O)(=O)N2CCN(C(=O)Cc3c(F)cccc3Cl)CC2)cc1`, the “hERG current change (%, negative = inhibition) at 1uM” value rises from 11.5% to 17.5%.

First: Cc1cc2ncn(S(=O)(=O)N3CCOCC3)c2cc1C
Second: CS(=O)(=O)N1CCN(c2ccccc2F)CC1
The “hERG current change (%, negative = inhibition) at 1uM” value of the first is lower: 7.78% for the first, 7.96% for the second.

First: COc1ccc(S(=O)(=O)n2nc(OC(=O)c3ccncc3)cc2N)cc1
Second: COc1ccc(S(=O)(=O)NCCc2cn3nc(C)c(C)nc3n2)cc1C
The “hERG current change (%, negative = inhibition) at 1uM” value of the first is lower: 19.9% for the first, 25% for the second.

Compared with `COc1ccc(CC(=S)N2CCOCC2)cc1`, `CCOc1ccc(OCCOCCN2CCOCC2)cc1.O=C(O)C(=O)O` is lower in “hERG current change (%, negative = inhibition) at 1uM” value: 8.89% for the first, 6.21% for the second.

First: CC1=C(C(=O)OCc2ccccc2)C(c2ccc(C(F)(F)F)cc2)NC(=O)N1CCCCCC(=O)O (centres unmarked)
Second: CCN(CC)CCCNC(=O)C1c2ccccc2C(=O)N(CCOC)C1c1ccc(F)cc1 (centres unmarked)
The “hERG current change (%, negative = inhibition) at 1uM” value of the first is higher: 16.1% for the first, 12% for the second.

First: CCCCn1c(N)c(N(CCOC)C(=O)c2ccc(OCc3c(C)noc3C)cc2)c(=O)[nH]c1=O
Second: CCCCn1c(=S)[nH]c2ncccc2c1=O
The “hERG current change (%, negative = inhibition) at 1uM” value of the first is higher: 19% for the first, -2.14% for the second.

Going from `C#CCOC(=O)C[N+](C)(C)CC#Cc1ccccc1.[Cl-]` to `N/C(=N\OC(=O)CCc1ccccc1)c1ccccc1Cl`, the “hERG current change (%, negative = inhibition) at 1uM” value falls from 9.91% to 8.76%.

First: C(=N\N1CCN(Cc2ccccc2)CC1)/c1cccs1
Second: C(=N\N1CCN(C2c3ccccc3-c3ccccc32)CC1)/c1cccs1
The “hERG current change (%, negative = inhibition) at 1uM” value of the first is lower: -1.33% for the first, 5.85% for the second.

First: CC(Cl)c1cc(-c2ncc(C(F)(F)F)cc2Cl)no1 (centres unmarked)
Second: Cc1onc(-c2ccccc2)c1C(=O)N1CCN(c2ncccc2C(F)(F)F)CC1
The “hERG current change (%, negative = inhibition) at 1uM” value of the first is lower: 5.32% for the first, 9.72% for the second.

Compared with `COc1ccccc1CNC(=O)C1Cc2ccccc2C(=O)O1` (centres unmarked), `COc1ccccc1CNS(=O)(=O)c1ccc2c(c1)NC(=O)CO2` is higher in “hERG current change (%, negative = inhibition) at 1uM” value: -2.63% for the first, 13.5% for the second.

Going from `CCOc1ccc(-c2ccc3nnc(SCC(=O)NCC4CCCO4)n3n2)cc1` (centres unmarked) to `CC(C)[C@@H](C(=O)NCC1CCCO1)N1C(=O)N2CCc3c([nH]c4ccccc34)[C@@]2(C)C1=O` (some centres unmarked), the “hERG current change (%, negative = inhibition) at 1uM” value falls from 12.1% to 8.5%.

Compared with `CC(=O)c1ccc(N(CC(=O)NC2CCCC2)C(=O)c2csnn2)cc1`, `CCN(CC)c1ccc(S(=O)(=O)N(CC)CC)cc1NC(=O)C1CCCC1` is higher in “hERG current change (%, negative = inhibition) at 1uM” value: 3.39% for the first, 9.69% for the second.

First: Cc1cc2ccccn2c1C(=O)c1ccc(Cl)cc1
Second: O=C(C1=C[C@@H]2[C@H]3C(=O)N(c4ccccc4Cl)C(=O)[C@H]3[C@@H](C(=O)c3ccc(Cl)cc3)N2C=C1)c1ccccc1
The “hERG current change (%, negative = inhibition) at 1uM” value of the first is lower: -3.2% for the first, 12.7% for the second.

Going from `COc1cccc(C2c3[nH]c4ccccc4c3CCN2Cc2cnc(C)s2)c1OC` (centres unmarked) to `Oc1c(C(c2cccc(F)c2)N2CCN(Cc3ccccc3)CC2)sc2ncnn12` (centres unmarked), the “hERG current change (%, negative = inhibition) at 1uM” value falls from 12.5% to 1.38%.

First: CCc1ccc(/C=C/c2c([N+](=O)[O-])c(=O)n(C)c(=O)n2C)cc1
Second: Cc1nn(C)c(C)c1CNC(=O)Nc1cccc(Cl)c1C
The “hERG current change (%, negative = inhibition) at 1uM” value of the first is lower: 6.39% for the first, 10.7% for the second.

Going from `CCCCN(C)CCC(=O)Nc1ccc(Cl)cc1.Cl` to `CCCCC(=O)N1CCN(c2nc3ccc(OCC)cc3s2)CC1`, the “hERG current change (%, negative = inhibition) at 1uM” value falls from 2.65% to -3.13%.

Compared with `C/C(=N/NC(=O)c1cccs1)c1cccc(N)c1`, `NNC(=O)CN1C(c2ccccc2Br)=Nc2ccc(Br)cc2C1c1ccccc1` (centres unmarked) is lower in “hERG current change (%, negative = inhibition) at 1uM” value: 26% for the first, 8.59% for the second.

Compared with `O=C(Nc1cccc(F)c1)NC1(C(=O)N2CCOCC2)CCCCC1`, `O=C(CCS(=O)(=O)Cc1ccccc1)Nc1nc2c(s1)CCCC2` is lower in “hERG current change (%, negative = inhibition) at 1uM” value: 8.29% for the first, 3.27% for the second.

Compared with `O=C(c1cc(-c2ccccc2)nc2ccccc12)N1CCN(c2ccccc2O)CC1`, `CC(=O)Cn1nnc2sc3c(c2c1=O)CCC(C(C)(C)C)C3` (centres unmarked) is higher in “hERG current change (%, negative = inhibition) at 1uM” value: 4.64% for the first, 6.65% for the second.

With `CSCC[C@H](NC(=O)OC(C)(C)C)C(=O)NCC1CCC(C(=O)O)CC1` (some centres unmarked) the “hERG current change (%, negative = inhibition) at 1uM” value was 3.02%.
